Patent US20090099029

Target: T1, Bovine, dephosphorylated, Myelin Basic Protein (MBP), P02687
T1 chain: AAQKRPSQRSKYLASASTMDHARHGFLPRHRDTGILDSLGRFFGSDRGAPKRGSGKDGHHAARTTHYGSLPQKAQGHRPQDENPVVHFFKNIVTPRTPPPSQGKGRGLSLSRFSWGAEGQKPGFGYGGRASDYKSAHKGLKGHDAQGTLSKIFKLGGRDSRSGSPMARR

B1: ABL1 (protein)
chain: MLEICLKLVGCKSKKGLSSSSSCYLEEALQRPVASDFEPQGLSEAARWNSKENLLAGPSE[about 60 residues not given here]LEKHSWYHGPVSRNAAEYLLSSGINGSFLVRESESSPGQRSISLRYEGRVYHYRINTASDGKLYVSSESRFNTLAELVHHHSTVADGLITTLHYPAPKRNKPTVYGVSPNYDKWEMERTDITMKHKLGGGQYGEVYEGVWKKYSLTVAVKTLKEDTMEVEEFLKEAAVMKEIKHPNLVQLLGVCTREPPFYIITEFMTYGNLLDYLRECNRQEVNAVVLLYMATQISSAMEYLEKKNFIHRDLAARNCLVGENHLVKVADFGLSRLMTGDTYTAHAGAKFPIKWTAPESLAYNKFSIKSDVWAFGVLLWEIATYGMSPYPGIDLSQVYELLEKDYRMERPEGCPEKVYELMRACWQWNPSDRPSFAEIHQAFETMFQESSISDEVEKELGKQGVRGAVSTLLQAPELPTKTRTSRRAAEHRDTTDVPEMPHSKGQGESDPLDHEPAVSPLLPRKERGPPEGGLNEDERLLPKDKKTNLFSALIKKKKKTAPTPPKRSSSFREMDGQPERRGAGEEEGRDISNGALAFTPLDTADPAKSPKPSNGAGVPNGALRESGGSGFRSPHLWKKSSTLTSSRLATGEEEGGGSSSKRFLRSCSASCVPHGAKDTEWRSVTLPRDLQSTGRQFDSSTFGGHKSEKPALPRKRAGENRSDQVTRGTVTPPPRLVKKNEEAADEVFKDIMESSPGSSPPNLTPKPLRRQVTVAPASGLPHKEEAGKGSALGTPAAAEPVTPTSKAGSGAPGGTSKGPAEESRVRRHKHSSESPGRDKGKLSRLKPAPPPPPAASAGKAGGKPSQSPSQEAAGEAVLGAKTKATSLVDAVNSDAAKPSQPGEGLKKPVLPATPKPQSAKPSGTPISPAPVPSTLPSASSALAGDQPSSTAFIPLISTRVSLRKTRQPPERIASGAITKGVVLDSTEALCLAISRNSEQMASHSAVLEAGKNLYTFCVSYVDSIQQMRNKFAFREAINKLENNLRELQICPATAGSGPAATQDFSKLLSSVKEISDIVQR
With B1 the “MBP Kinase Activity” value was “Weak”.
